The source of these data is PMC10385743.

Like-named read-outs stand apart in the source and are kept apart here.

For assay [1], the system named is HCV genotype 1b (strain Con1) subgenomic replicon. As to the kind of experiment: microbe, parasite or virus in culture. In kind it is cell-based, hepatitis C virus. The conditions noted are these: for EC50: 72 h, luciferase, mean ± SD, read-out: Huh5-2 (HCV Replicon 1b) EC50. A general note: Replicon systems follow genome replication, usually without infectious particles.

For another assay, the system named is HCV NS5A protein. As to the kind of experiment: Western blot analysis for NS5A in Huh5-2 cells. The following applies: serial dilutions. (A western blot detects proteins with antibodies after separation by electrophoresis.)
Assay [2] has as its system HCV genotype 1b (strain Con1) subgenomic replicon. On the set-up: method as in PMID 31303998. The following applies: earlier lead compounds; read-out: Huh5-2 (HCV Replicon 1b) EC50; cited from earlier work.
The mark [3] stands for this setting: Hepatitis C virus, Huh-5-2, 72 h.

A word on the EC50: it is the concentration that produces a half-maximal response. As to `CC1CCC2(NC(=O)N(CC(=O)NO)C2=O)c2ccccc21` [Compound 34, Ν-(hydroxy)-2-((4R,4′S)/(4S,4′R)-4′-methyl-2,5-dioxo-3′,4′-dihydro-2′H-spiro[imidazolidine-4,1′-naphthalene]-1-yl)acetamide], in assay [1], the “anti-HCV (genotype 1b) potency in comparison with 35” value is on record as “eight-times-better potency” and the EC50 stood at 980 ± 100 nM. The “effect on levels of the viral NS5A protein” value in the assay with HCV NS5A protein is reported as “negative effect”.

Consider `CC1CCC2(NC(=O)N(CC(=O)NO)C2=O)c2ccccc21` [Compound 35, Ν-(Hydroxy)-2-((4R,4′R)/(4S,4′S)-4′-methyl-2,5-dioxo-3′,4′-dihydro-2′H-spiro[imidazolidine-4,1′-naphthalene]-1-yl)acetamide], for which the EC50 in assay [1] turned out to be 7310 ± 420 nM.

As to `O=C(CN1C(=O)NC2(CCC(c3ccccc3)CC2)C1=O)NO` (centres unmarked) [Compound 36, N-Hydroxy-2-(2,4-dioxo-8-phenyl-1,3-diazaspiro [4.5]decan-3-yl) acetamide], in assay [1] (setting [3]), the EC50 stood at 2530 ± 110 nM.

For the molecule `O=C(CN1C(=O)NC2(CCCCC2c2ccccc2)C1=O)NO` (centres unmarked) [Compound 37, N-Hydroxy-2-(2,4-dioxo-6-phenyl-1,3-diazaspiro [4.5]decan-3-yl) acetamide], the EC50 in assay [1] (setting [3]) was greater than 10000 nM.

Turning to `CN1C(=O)N(CC(=O)NO)C(=O)C12CCC(c1ccccc1)CC2` (centres unmarked) [Compound 38, N-Hydroxy-2-(1-methyl-2,4-dioxo-8-phenyl-1,3-diazaspiro [4.5]decan-3-yl)acetamide], the EC50 in assay [1] (setting [3]) came to 2750 ± 960 nM.

In the case of `CN1C(=O)N(CC(=O)NO)C(=O)C12CCCCC2c1ccccc1` (centres unmarked) [Compound 39, N-Hydroxy-2-(1-methyl-2,4-dioxo-6-phenyl-1,3-diazaspiro [4.5]decan-3-yl)acetamide], the EC50 in assay [1] (setting [3]) was greater than 10000 nM.

`CCN1C(=O)N(CC(=O)NO)C(=O)C12CCC(c1ccccc1)CC2` (centres unmarked) [Compound 40, N-Hydroxy-2-(1-ethyl-2,4-dioxo-8-phenyl-1,3-diazaspiro [4.5]decan-3-yl)acetamide]: in assay [1] (setting [3]), the EC50 was determined as 340 ± 60 nM.

For the molecule `O=C(CN1C(=O)N(Cc2ccccc2)C2(CCC(c3ccccc3)CC2)C1=O)NO` (centres unmarked) [Compound 41, N-Hydroxy-2-(1-benzyl-2,4-dioxo-8-phenyl-1,3-diazaspiro [4.5]decan-3-yl)acetamide], in assay [1] (setting [3]), the EC50 is greater than 10000 nM.

With `O=C(CN1C(=O)N(Cc2ccccc2)C2(CCCCC2c2ccccc2)C1=O)NO` (centres unmarked) [Compound 42, N-Hydroxy-2-(1-benzyl-2,4-dioxo-6-phenyl-1,3-diazaspiro [4.5]decan-3-yl)acetamide], the EC50 in assay [1] (setting [3]) came to 740 ± 20 nM.

Consider `CC(C(=O)NO)N1C(=O)NC2(CCC(c3ccccc3)CC2)C1=O` (centres unmarked) [Compound 49, N-(Hydroxy)-2-(2,4-dioxo-8-phenyl-1,3-diazaspiro [4.5]decan-3-yl)propanamide], for which the EC50 in assay [1] (setting [3]) is greater than 10000 nM.

With `CC(C(=O)NO)N1C(=O)N(C)C2(CCC(c3ccccc3)CC2)C1=O` (centres unmarked) [Compound 53, N-(hydroxy)-2-(1-methyl-2,4-dioxo-8-phenyl-1,3-diazaspiro [4.5]decan-3-yl)propanamide], in assay [1] (setting [3]), the EC50 is 8660 ± 760 nM.

For the molecule `O=C(CN1C(=O)NC2(CCCCc3ccccc32)C1=O)NO` (centres unmarked) [IV], in assay [2], the EC50 is 250 ± 20 nM.
